Experimental findings from a collection of fitness landscapes (doi:10.1016/j.celrep.2020.107928) are described below.

B1: Caulobacter ParB omega fusion; a variant is named by its letters at X, in order, B8GW30 (parent)
chain: MESVVVGEPGMSEGRRGLGRGLSALLGEVDAAPAQAPGEQLGGSREAPIEILQRNPDQPRRTFREEDLEDLSNSIREKGVLQPILVRPSPDTAGEYQIVAGERAWRAAQRAGLKTVPIMVRELDDLAVLEIGIIENVQRADLNVLEEALSYKVLMEKFERTQENIAQTIGKSXSHVANXMRLLXLPDEVQSYLVSGELTAXHARAIAAAADPVALAKQIIEGGLSVRETEALARKAPNLSAGKSKGGRPPRVKDTDTQALESDLSSVLGLDVSIDHRGSTGTLTITYATLEQLDDLCNRLTRGI

The full ranking holds about 81,000 sequences; the median of “one-hybrid fitness for binding parS DNA” is about -0.17, and the highest 2% start at about 0.51. The list shows a part of the results.

In this test the parent is B1. Put plainly: one-hybrid fitness for binding parS DNA (scaled: cognate 1, non-cognate 0); higher = stronger binding. Particulars: with parS DNA site. In a few lines:
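Values were rescaled so that cognate is 1 and non-cognate is 0. Each is a fitness, the log change in a variant's read ratio to wild type from Illumina reads of plasmids before and after selection, with three replicate libraries pooled and variants under 10 reads dropped. Selection of the Caulobacter ParB libraries, four specificity codons randomised, used E. coli USO with a HIS3 reporter, site 19 bp from the promoter, on M9-minus-histidine with 0.1 mM IPTG and 5 mM 3-AT for 48 hours at 37°C.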
As for MPKR, the “one-hybrid fitness for binding parS DNA” value was at most 0.2.

Regarding CPND, the “one-hybrid fitness for binding parS DNA” value was at most 0.2. Regarding AGHV, the “one-hybrid fitness for binding parS DNA” value is at most 0.2. For the variant TAAI, the “one-hybrid fitness for binding parS DNA” value is at most 0.2. Regarding PYTR, the “one-hybrid fitness for binding parS DNA” value was at most 0.2. Turning to LHLL, the “one-hybrid fitness for binding parS DNA” value was at most 0.2. Next, GFDF: at most 0.2. As to QQLR, the “one-hybrid fitness for binding parS DNA” value was at most 0.2.

Consider PYCS, for which the “one-hybrid fitness for binding parS DNA” value was at most 0.2. The same measure for YTLE: at most 0.2; for QAIC: at most 0.2; for TRYG: at most 0.2. TRQS: the “one-hybrid fitness for binding parS DNA” value was at most 0.2. Take YHTT: the “one-hybrid fitness for binding parS DNA” value was at most 0.2. Next, KIRF: at most 0.2; QWIG: at most 0.2. With LKHT, the “one-hybrid fitness for binding parS DNA” value is at most 0.2.

Regarding PSKS, the “one-hybrid fitness for binding parS DNA” value was at most 0.2. The same measure for FVTC: at most 0.2; for WGYV: at most 0.2; for AMWG: at most 0.2. As for FHRC, the “one-hybrid fitness for binding parS DNA” value was at most 0.2. Take MLAT: the “one-hybrid fitness for binding parS DNA” value was at most 0.2.

Consider SPYK, for which the “one-hybrid fitness for binding parS DNA” value was at most 0.2. Turning to KMKA, the “one-hybrid fitness for binding parS DNA” value is at most 0.2. RLTF: the “one-hybrid fitness for binding parS DNA” value came out at 0.248.

Consider SQMF, for which the “one-hybrid fitness for binding parS DNA” value was at most 0.2.

Consider SAEC, for which the “one-hybrid fitness for binding parS DNA” value was at most 0.2. In the case of VHTV, the “one-hybrid fitness for binding parS DNA” value is at most 0.2. Regarding SAFF, the “one-hybrid fitness for binding parS DNA” value is at most 0.2.

On to RYHK, for which the “one-hybrid fitness for binding parS DNA” value is at most 0.2.

With ATYF, the “one-hybrid fitness for binding parS DNA” value was at most 0.2. As to ANVG, the “one-hybrid fitness for binding parS DNA” value was at most 0.2. On to QGDG, for which the “one-hybrid fitness for binding parS DNA” value is at most 0.2. Regarding SFTI, the “one-hybrid fitness for binding parS DNA” value was at most 0.2.

With NWDR, the “one-hybrid fitness for binding parS DNA” value is at most 0.2.

On to AAML, for which the “one-hybrid fitness for binding parS DNA” value was at most 0.2. Consider LGSP, for which the “one-hybrid fitness for binding parS DNA” value was at most 0.2. RQFM: the “one-hybrid fitness for binding parS DNA” value stood at 0.279. Consider LSRY, for which the “one-hybrid fitness for binding parS DNA” value was at most 0.2.

On to CENR, for which the “one-hybrid fitness for binding parS DNA” value was at most 0.2. The same measure for RPMI: at most 0.2. Regarding MNDR, the “one-hybrid fitness for binding parS DNA” value is at most 0.2.

In the case of SRIT, the “one-hybrid fitness for binding parS DNA” value is at most 0.2. With RVCY, the “one-hybrid fitness for binding parS DNA” value was 0.462. Turning to RSHP, the “one-hybrid fitness for binding parS DNA” value was at most 0.2.

As for NPWL, the “one-hybrid fitness for binding parS DNA” value was at most 0.2.

In the case of YRKF, the “one-hybrid fitness for binding parS DNA” value is at most 0.2. As for AQRD, the “one-hybrid fitness for binding parS DNA” value is at most 0.2. As for AELT, the “one-hybrid fitness for binding parS DNA” value was at most 0.2. In the case of PYTK, the “one-hybrid fitness for binding parS DNA” value was at most 0.2. Regarding YRFR, the “one-hybrid fitness for binding parS DNA” value is at most 0.2. Consider VLKI, for which the “one-hybrid fitness for binding parS DNA” value is at most 0.2.

For NDMH, the “one-hybrid fitness for binding parS DNA” value is at most 0.2. Regarding QPSF, the “one-hybrid fitness for binding parS DNA” value was at most 0.2.

Regarding HESA, the “one-hybrid fitness for binding parS DNA” value is at most 0.2. As to TEDG, the “one-hybrid fitness for binding parS DNA” value was at most 0.2. TIYI: the “one-hybrid fitness for binding parS DNA” value is at most 0.2. On to VFTS, for which the “one-hybrid fitness for binding parS DNA” value was at most 0.2. In the case of CRLC, the “one-hybrid fitness for binding parS DNA” value is at most 0.2. Regarding HVMR, the “one-hybrid fitness for binding parS DNA” value was at most 0.2. Next, HPKN: at most 0.2. Turning to AQAG, the “one-hybrid fitness for binding parS DNA” value is at most 0.2. As to DPGT, the “one-hybrid fitness for binding parS DNA” value is at most 0.2. On to KIDS, for which the “one-hybrid fitness for binding parS DNA” value is at most 0.2. As for IRPL, the “one-hybrid fitness for binding parS DNA” value is at most 0.2. Turning to QPYH, the “one-hybrid fitness for binding parS DNA” value was at most 0.2. TSHQ: the “one-hybrid fitness for binding parS DNA” value was at most 0.2.

In the case of HNAC, the “one-hybrid fitness for binding parS DNA” value was at most 0.2. The same measure for LFSL: at most 0.2. With VVLD, the “one-hybrid fitness for binding parS DNA” value was at most 0.2. For the variant QRKP, the “one-hybrid fitness for binding parS DNA” value is at most 0.2. Next, NSAG: at most 0.2; SHIR: at most 0.2. On to RQVV, for which the “one-hybrid fitness for binding parS DNA” value was at most 0.2. For the variant PLQP, the “one-hybrid fitness for binding parS DNA” value was at most 0.2. Next, WINM: at most 0.2.
